Test results taken from PubChem BioAssay AID504332 (National Center for Advancing Translational Sciences (NCATS), 2011).
Among all 350,000 compounds or so, about 31,000 (8.9%) were called active. Inconclusive results, whose numbers are uncertain, are shown with a selection of clear calls. Calls come from the whole dose curve; as a rule, active = well fitted inhibition curve with a large enough effect; inconclusive = small, poorly fitted or top-dose-only effect; inactive = no such curve, though single readings can be large or run the other way. Potencies beside an inconclusive call are fits to weak or partial responses and may not hold up.

Each compound was assayed against Histone-lysine N-methyltransferase EHMT2 (Homo sapiens) (UniProt Q96KQ7) (assay: qHTS Assay for Inhibitors of Histone Lysine Methyltransferase G9a). Conditions: G9a H3K9 monomethylation, AlphaScreen, 2 h; activity, negative = inhibition: at 59 µM (top of the series) unless noted.
Method in brief: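 G9a (20 nM) was preincubated 15 min with compound, then reacted 2 h at room temperature with 500 nM biotin-H3K9 peptide and 20 µM SAM. Monomethyl-H3K9 detected by AlphaScreen using anti-H3K9me1 antibody.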
% is set by controls: 0 for no effect and ±100 for the full control effect; potency is the fitted concentration of half-maximal effect; tags give direction and shape of the fitted curve.
Note: nearly all actives have a fitted effect of over 75% in size.

UniProt Q96KQ7, sequence (Q96KQ7 whole entry, looked up): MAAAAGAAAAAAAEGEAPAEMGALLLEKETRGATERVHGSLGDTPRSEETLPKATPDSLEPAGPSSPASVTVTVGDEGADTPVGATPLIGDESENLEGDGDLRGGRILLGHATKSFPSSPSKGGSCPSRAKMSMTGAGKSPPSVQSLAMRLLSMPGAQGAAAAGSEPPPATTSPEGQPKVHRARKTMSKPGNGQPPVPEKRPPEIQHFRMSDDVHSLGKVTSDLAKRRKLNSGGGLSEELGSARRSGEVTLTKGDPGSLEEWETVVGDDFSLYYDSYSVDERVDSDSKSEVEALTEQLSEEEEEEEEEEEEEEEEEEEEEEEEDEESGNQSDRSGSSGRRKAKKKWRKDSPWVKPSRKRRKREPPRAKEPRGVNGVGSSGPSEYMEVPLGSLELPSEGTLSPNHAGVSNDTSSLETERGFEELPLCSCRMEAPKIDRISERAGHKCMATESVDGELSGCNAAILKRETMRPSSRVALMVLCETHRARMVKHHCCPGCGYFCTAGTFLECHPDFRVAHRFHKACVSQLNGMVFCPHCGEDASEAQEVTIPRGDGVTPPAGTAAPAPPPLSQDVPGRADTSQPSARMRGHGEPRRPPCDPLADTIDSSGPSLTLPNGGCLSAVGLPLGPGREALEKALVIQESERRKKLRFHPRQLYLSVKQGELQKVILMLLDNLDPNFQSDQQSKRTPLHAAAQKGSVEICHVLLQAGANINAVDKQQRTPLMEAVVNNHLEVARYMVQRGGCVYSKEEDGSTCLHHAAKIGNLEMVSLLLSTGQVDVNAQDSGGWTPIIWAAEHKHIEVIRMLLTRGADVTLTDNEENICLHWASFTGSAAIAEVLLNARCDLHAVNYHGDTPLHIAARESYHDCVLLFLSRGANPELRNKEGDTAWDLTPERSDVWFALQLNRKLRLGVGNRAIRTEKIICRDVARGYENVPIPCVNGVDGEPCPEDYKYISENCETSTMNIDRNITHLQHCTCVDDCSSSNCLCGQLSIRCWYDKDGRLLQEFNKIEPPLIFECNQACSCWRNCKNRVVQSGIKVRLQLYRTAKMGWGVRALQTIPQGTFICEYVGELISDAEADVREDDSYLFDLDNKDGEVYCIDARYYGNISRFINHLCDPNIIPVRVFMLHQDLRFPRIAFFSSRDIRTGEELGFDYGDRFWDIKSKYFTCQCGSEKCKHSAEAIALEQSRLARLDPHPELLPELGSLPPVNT

Row | Structure (SMILES) | Potency | activity, negative = inhibition
1 | O=C(NNc1cccc(Cl)n1)Nc1ccc(F)cc1 | inconclusive: 79.4 µM [inhibitor, single point] | 
2 | COC(=O)c1nn(-c2ccc(OC)cc2)c(=O)cc1O |  | inactive: -42.1% [at 102 µM]
3 | CCCCc1cc(=O)oc2cc(C)cc(OC(C)C(=O)O)c12 (stereo unspecified) |  | inactive: -3.03% [at 12.7 µM]
4 | CCOc1ccc(NC(=S)N/N=C(\C)Cc2ccc(OC)cc2)cc1 | inconclusive: 3.55 µM [inhibitor, partial curve, poor fit] | 
5 | COc1ccc(Cn2cc3c(-c4ccc(F)cc4)nnc-3c3cc(OC)c(OC)cc32)cc1 |  | inactive: 34.1%
6 | S=C(N/N=C/c1cccs1)NC1CC2CCC1C2 (stereo unspecified) | inconclusive: 31.6 µM [inhibitor, full curve] | 
7 | S=C(Nc1ccc(Cl)cc1)N(CCCN1CCOCC1)Cc1ccco1 |  | inactive: -9.95%
8 | O=C(COC(=O)c1ccccc1Nc1ccccc1)NCc1ccccc1 | active: 50.1 µM | 
9 | COc1ccc(-c2cc(=O)[nH][nH]2)cc1OC | inconclusive: 2.24 µM [inhibitor, partial curve, poor fit] | 
10 | CC(=O)C1C(c2ccc(Cl)cc2)NC(=O)NC1(O)C(F)(F)F (stereo unspecified) | inconclusive: 22.4 µM [inhibitor, single point] | 
11 | Cc1ccc(N(CC(=O)N(C)Cc2ccccc2)S(C)(=O)=O)cc1C |  | inactive: 44.5% [at 102 µM]
12 | CC(=O)Nc1cccc(-n2nnc(SCC(=O)Nc3ccc(F)c(Cl)c3)n2)c1 | inconclusive: 79.4 µM [inhibitor, partial curve, poor fit] | 
13 | COc1ccc(/C(O)=C2/C(=O)C(=O)N(CCN3CCNCC3)C2c2cccc([N+](=O)[O-])c2)cc1 (stereo unspecified) | inconclusive: 79.4 µM [inhibitor, single point] | 
14 | O=C(CSc1nnc(CNC(=O)c2ccccc2)o1)NCC1CCCO1 (stereo unspecified) |  | inactive: 9.27% [at 102 µM]
15 | C=CCOc1cccc(C(=O)/C=C2/C(=O)Nc3ccccc32)c1 | inconclusive: 35.5 µM [inhibitor, partial curve, poor fit] | 
16 | CCOC(=O)C1CCCN(C(=O)c2sc3nc(-c4ccccc4)cn3c2C)C1 (stereo unspecified) | inconclusive: 56.2 µM [inhibitor, partial curve, poor fit] | 
17 | COc1ccc(NC(=O)CC2C(=O)N(c3ccc(OC)cc3)C(=O)N2CCC2=CCCCC2)cc1 (stereo unspecified) |  | inactive: 16.3%
18 | CCc1ccc2[nH]c(=O)c(C(c3nnnn3CCOC)N3CCN(c4ccccc4)CC3)cc2c1 (stereo unspecified) | active: 28.2 µM | 
19 | O=C1C=CC2=C3c4cc(O)c(O)cc4C[C@]3(O)COC2=C1 |  | inconclusive: -70.7% [inhibitor] [at 2.33 µM]
20 | COCCCNC(=O)c1sc2ncnc(N3CCc4ccccc4C3)c2c1C | inconclusive: 1.12 µM [inhibitor, full curve, poor fit] | 
21 | CCOC(=O)c1sc(NS(=O)(=O)c2ccc(NC(C)=O)cc2)nc1C | inconclusive: 20 µM [inhibitor, partial curve, poor fit] | 
22 | O=C(CSc1nc2ccccc2n1S(=O)(=O)c1ccccc1)N1CCCCC1 | active: 70.8 µM | 
23 | Cc1ccc(CNC(=O)c2cc3c(=O)n(Cc4ccco4)ccc3nc2C)cc1 | inconclusive: 22.4 µM [inhibitor, single point] | 

Row | Structure (SMILES) | Potency | activity, negative = inhibition
24 | CCCCn1c(N)c(N(CC(C)C)C(=O)C2CSC3(C)CCC(=O)N23)c(=O)[nH]c1=O (stereo unspecified) | active: 50.1 µM | 
25 | COc1ccc(CN(C)C(=O)C23CC4CC(CC(Cl)(C4)C2)C3)c(OC)c1OC | inconclusive: 3.98 µM [inhibitor, partial curve, poor fit] | 
26 | Cc1cc(C(=O)Nc2ccc(S(=O)(=O)Nc3onc(C)c3C)cc2)cs1 | inconclusive: 39.8 µM [inhibitor, single point] | 
27 | O=C(COC(=O)c1cccc(O)c1)Nc1ccc(N2CCOCC2)cc1 | inconclusive: 39.8 µM [inhibitor, single point] | 
28 | Cc1ccc(-c2ccccc2)n1-c1ccc(C(=O)O)cc1 | active: 10 µM | 
29 | C=CCn1c(C2CCCCC2)n[nH]c1=S | active: 20 µM | 
30 | O=C(O)c1nn(-c2ccccc2C(F)(F)F)cc1O | inconclusive: 89.1 µM [inhibitor, single point] | 
31 | CC1(C(=O)O)NCCc2cc(O)c(O)cc21 (stereo unspecified) | active: 17.8 µM | 
32 | C(=C\c1ccccc1)/CSc1nnc(-c2ccccn2)n1Cc1ccco1 | active: 15.8 µM | 
33 | COc1ccc(-c2noc(CSc3nc(N)c(-c4ccccc4)c(=O)[nH]3)n2)cc1 | inconclusive: 50.1 µM [inhibitor, partial curve] | 
34 | CCCCCCCCCCCCCCCC[n+]1cccc(C(=O)N(CC)CC)c1 | inconclusive: 7.94 µM [inhibitor, partial curve, poor fit] | 
35 | O=C(COc1ccccc1)NCC(=O)N/N=C/c1ccc(O)cc1O |  | inactive: 44.6%
36 | Cc1ccccc1N(CC(=O)N1CCN(c2ccccc2)CC1)S(C)(=O)=O | active: 50.1 µM | 
37 | COCCCn1cn[nH]c1=S | inconclusive: 44.7 µM [inhibitor, partial curve, poor fit] | 
38 | O=C(CS(=O)(=O)Cc1ccccc1)NCCc1ccc(F)cc1 | inconclusive: 2.51 µM [inhibitor, full curve] | 
39 | C/C(=N\NC(=O)c1ccccc1)c1ccc(-n2ccnc2)cc1 |  | inactive: 15.1% [at 102 µM]
40 | Cc1ccc(N=c2c([N+](=O)[O-])nn(-c3ccccc3)n2O)c(C)c1 | inconclusive: 1.12 µM [inhibitor, single point] | 
41 | Cc1ccc(NC(=O)CCc2c(C)nc3c(-c4ccc(F)cc4)c(C)nn3c2C)cc1F |  | inactive: 1.49%
42 | O=S(=O)(c1ccccc1)N1CCN(c2ccnc3cc(Cl)ccc23)CC1 | inconclusive: 28.2 µM [inhibitor, full curve] | 
43 | CC(C)=CCC1=C(OCC(=O)O)C(=O)c2ccccc2C1=O | inconclusive: 50.1 µM [inhibitor, partial curve, poor fit] | 
44 | CCOC(=O)c1cccc(NC(=O)C(C)N2C(=O)c3ccccc3C2=O)c1 (stereo unspecified) | inconclusive: 17.8 µM [inhibitor, partial curve, poor fit] | 
45 | O=C(Oc1nsnc1N1CCOCC1)c1ccccc1 | active: 35.5 µM | 
46 | COc1cc(C(C2=C(O)CC(C)(C)CC2=O)C2C(=O)CC(C)(C)CC2=O)cc(OC)c1OC (stereo unspecified) | inconclusive: 39.8 µM [inhibitor, single point] | 
